Experimental findings from paper PMC12102759 (2025) are described below.

To fix the notation:
B1: CAPRIN1 peptide 364-379 (Caprin-1), 16-mer library wild type / G3BP1 NFT2 (G3BP1 NTF2 domain, […]) (parent complex)
chain 1: AQMQGPYNFIQDSMLD
chain 2: not shown

This assay covers variants of B1. Briefly: proteomic peptide phage display deep mutational scan (ProP-PD DMS): M13 P8 16-mer library selected against immobilised GST-tagged bait for four days (rounds), NGS of the eluted pools per day and pseudo-replica; bait immobilised on MaxiSorp plates (10 µg), library pre-cleared on GST, 2 h binding at 4 °C, five washes; one round per day, days 1-4; value from days 2 and 3.
On to chain 1 Q11F, for which the screen value is 0.000281 average fractional NGS count over selection days 2 and 3 (reads of this peptide / all reads for the bait, averaged over ….

As for chain 1 Q11N, the screen value was 0.000354 average fractional NGS count over selection days 2 and 3 (reads of this peptide / all reads for the bait, averaged over ….

Regarding chain 1 Q11G, the screen value is 0.0037 average fractional NGS count over selection days 2 and 3 (reads of this peptide / all reads for the bait, averaged over ….

Turning to chain 1 Q11R, the screen value was 0.000196 average fractional NGS count over selection days 2 and 3 (reads of this peptide / all reads for the bait, averaged over ….

Turning to chain 1 Q11W, the screen value was 0.000693 average fractional NGS count over selection days 2 and 3 (reads of this peptide / all reads for the bait, averaged over ….

chain 1 Q11S: the screen value is 0.00259 average fractional NGS count over selection days 2 and 3 (reads of this peptide / all reads for the bait, averaged over ….

Turning to chain 1 Q11M, the screen value is 0.00123 average fractional NGS count over selection days 2 and 3 (reads of this peptide / all reads for the bait, averaged over ….

Turning to chain 1 Q11T, the screen value was 0.00046 average fractional NGS count over selection days 2 and 3 (reads of this peptide / all reads for the bait, averaged over ….

Take chain 1 Q11L: the screen value is 0.000312 average fractional NGS count over selection days 2 and 3 (reads of this peptide / all reads for the bait, averaged over ….

chain 1 L15F: the screen value is 0.000191 average fractional NGS count over selection days 2 and 3 (reads of this peptide / all reads for the bait, averaged over ….

On to chain 1 L15I, for which the screen value was 0.000248 average fractional NGS count over selection days 2 and 3 (reads of this peptide / all reads for the bait, averaged over ….

In the case of chain 1 L15M, the screen value is 0.000416 average fractional NGS count over selection days 2 and 3 (reads of this peptide / all reads for the bait, averaged over ….

As to chain 1 L15V, the screen value was 0.000519 average fractional NGS count over selection days 2 and 3 (reads of this peptide / all reads for the bait, averaged over ….

In the case of chain 1 F9D, the screen value was 0.000882 average fractional NGS count over selection days 2 and 3 (reads of this peptide / all reads for the bait, averaged over ….

For chain 1 F9Q, the screen value was 0.000249 average fractional NGS count over selection days 2 and 3 (reads of this peptide / all reads for the bait, averaged over ….

As to chain 1 N8Y, the screen value was 0.00187 average fractional NGS count over selection days 2 and 3 (reads of this peptide / all reads for the bait, averaged over ….

For chain 1 N8R, the screen value is 0.0014 average fractional NGS count over selection days 2 and 3 (reads of this peptide / all reads for the bait, averaged over ….

As to chain 1 N8W, the screen value is 0.0215 average fractional NGS count over selection days 2 and 3 (reads of this peptide / all reads for the bait, averaged over ….

For chain 1 N8F, the screen value is 0.0014 average fractional NGS count over selection days 2 and 3 (reads of this peptide / all reads for the bait, averaged over ….

chain 1 N8V: the screen value is 0.00509 average fractional NGS count over selection days 2 and 3 (reads of this peptide / all reads for the bait, averaged over ….

As to chain 1 N8Q, the screen value is 0.00747 average fractional NGS count over selection days 2 and 3 (reads of this peptide / all reads for the bait, averaged over ….

With chain 1 N8G, the screen value was 0.000246 average fractional NGS count over selection days 2 and 3 (reads of this peptide / all reads for the bait, averaged over ….

On to chain 1 N8M, for which the screen value is 0.00371 average fractional NGS count over selection days 2 and 3 (reads of this peptide / all reads for the bait, averaged over ….

Regarding chain 1 N8D, the screen value is 0.000568 average fractional NGS count over selection days 2 and 3 (reads of this peptide / all reads for the bait, averaged over ….

With chain 1 N8I, the screen value is 0.00118 average fractional NGS count over selection days 2 and 3 (reads of this peptide / all reads for the bait, averaged over ….

On to chain 1 N8S, for which the screen value was 0.00843 average fractional NGS count over selection days 2 and 3 (reads of this peptide / all reads for the bait, averaged over ….

On to chain 1 N8A, for which the screen value is 0.0123 average fractional NGS count over selection days 2 and 3 (reads of this peptide / all reads for the bait, averaged over ….

As to chain 1 N8H, the screen value was 0.00457 average fractional NGS count over selection days 2 and 3 (reads of this peptide / all reads for the bait, averaged over ….

Regarding chain 1 M3W, the screen value was 0.00995 average fractional NGS count over selection days 2 and 3 (reads of this peptide / all reads for the bait, averaged over ….

On to chain 1 M3Y, for which the screen value is 0.00178 average fractional NGS count over selection days 2 and 3 (reads of this peptide / all reads for the bait, averaged over ….

Regarding chain 1 M3Q, the screen value is 0.00839 average fractional NGS count over selection days 2 and 3 (reads of this peptide / all reads for the bait, averaged over ….

Take chain 1 M3S: the screen value was 0.000351 average fractional NGS count over selection days 2 and 3 (reads of this peptide / all reads for the bait, averaged over ….

As for chain 1 M3G, the screen value was 0.00384 average fractional NGS count over selection days 2 and 3 (reads of this peptide / all reads for the bait, averaged over ….

For chain 1 M3R, the screen value was 0.000486 average fractional NGS count over selection days 2 and 3 (reads of this peptide / all reads for the bait, averaged over ….

With chain 1 M3A, the screen value was 0.000963 average fractional NGS count over selection days 2 and 3 (reads of this peptide / all reads for the bait, averaged over ….

For the variant chain 1 M3H, the screen value was 0.00286 average fractional NGS count over selection days 2 and 3 (reads of this peptide / all reads for the bait, averaged over ….

On to chain 1 M3F, for which the screen value was 0.00132 average fractional NGS count over selection days 2 and 3 (reads of this peptide / all reads for the bait, averaged over ….

In the case of chain 1 M3I, the screen value was 0.00263 average fractional NGS count over selection days 2 and 3 (reads of this peptide / all reads for the bait, averaged over ….

With chain 1 M3D, the screen value was 0.00185 average fractional NGS count over selection days 2 and 3 (reads of this peptide / all reads for the bait, averaged over ….

Turning to chain 1 M3E, the screen value was 0.00395 average fractional NGS count over selection days 2 and 3 (reads of this peptide / all reads for the bait, averaged over ….

Turning to chain 1 M3T, the screen value was 0.00733 average fractional NGS count over selection days 2 and 3 (reads of this peptide / all reads for the bait, averaged over ….

For the variant chain 1 I10L, the screen value is 0.000748 average fractional NGS count over selection days 2 and 3 (reads of this peptide / all reads for the bait, averaged over ….

As for chain 1 I10G, the screen value was 0.000373 average fractional NGS count over selection days 2 and 3 (reads of this peptide / all reads for the bait, averaged over ….

Turning to chain 1 I10Y, the screen value was 0.000332 average fractional NGS count over selection days 2 and 3 (reads of this peptide / all reads for the bait, averaged over ….

For the variant chain 1 I10V, the screen value was 0.000435 average fractional NGS count over selection days 2 and 3 (reads of this peptide / all reads for the bait, averaged over ….

For chain 1 I10H, the screen value was 0.000282 average fractional NGS count over selection days 2 and 3 (reads of this peptide / all reads for the bait, averaged over ….

For the variant chain 1 I10Q, the screen value is 0.00143 average fractional NGS count over selection days 2 and 3 (reads of this peptide / all reads for the bait, averaged over ….

As for chain 1 I10F, the screen value is 0.00937 average fractional NGS count over selection days 2 and 3 (reads of this peptide / all reads for the bait, averaged over ….

For the variant chain 1 I10T, the screen value is 0.00177 average fractional NGS count over selection days 2 and 3 (reads of this peptide / all reads for the bait, averaged over ….

On to chain 1 I10M, for which the screen value was 0.00334 average fractional NGS count over selection days 2 and 3 (reads of this peptide / all reads for the bait, averaged over ….

chain 1 I10W: the screen value is 0.0157 average fractional NGS count over selection days 2 and 3 (reads of this peptide / all reads for the bait, averaged over ….

Consider chain 1 Y7P, for which the screen value is 0.000114 average fractional NGS count over selection days 2 and 3 (reads of this peptide / all reads for the bait, averaged over ….

Turning to chain 1 Y7W, the screen value was 0.00146 average fractional NGS count over selection days 2 and 3 (reads of this peptide / all reads for the bait, averaged over ….

In the case of chain 1 Y7I, the screen value is 0.000511 average fractional NGS count over selection days 2 and 3 (reads of this peptide / all reads for the bait, averaged over ….

With chain 1 Y7F, the screen value is 0.00144 average fractional NGS count over selection days 2 and 3 (reads of this peptide / all reads for the bait, averaged over ….

In the case of chain 1 P6T, the screen value was 0.00679 average fractional NGS count over selection days 2 and 3 (reads of this peptide / all reads for the bait, averaged over ….

Take chain 1 P6F: the screen value was 0.000206 average fractional NGS count over selection days 2 and 3 (reads of this peptide / all reads for the bait, averaged over ….

For chain 1 P6D, the screen value was 0.00129 average fractional NGS count over selection days 2 and 3 (reads of this peptide / all reads for the bait, averaged over ….

For the variant chain 1 P6S, the screen value is 0.000844 average fractional NGS count over selection days 2 and 3 (reads of this peptide / all reads for the bait, averaged over ….

Regarding chain 1 P6W, the screen value is 0.00221 average fractional NGS count over selection days 2 and 3 (reads of this peptide / all reads for the bait, averaged over ….

As to chain 1 P6V, the screen value is 0.000629 average fractional NGS count over selection days 2 and 3 (reads of this peptide / all reads for the bait, averaged over ….

Turning to chain 1 P6N, the screen value was 0.00292 average fractional NGS count over selection days 2 and 3 (reads of this peptide / all reads for the bait, averaged over ….

For chain 1 P6E, the screen value is 0.000429 average fractional NGS count over selection days 2 and 3 (reads of this peptide / all reads for the bait, averaged over ….

On to chain 1 P6H, for which the screen value was 0.000772 average fractional NGS count over selection days 2 and 3 (reads of this peptide / all reads for the bait, averaged over ….

With chain 1 P6A, the screen value was 0.00823 average fractional NGS count over selection days 2 and 3 (reads of this peptide / all reads for the bait, averaged over ….

Regarding chain 1 P6G, the screen value was 0.000611 average fractional NGS count over selection days 2 and 3 (reads of this peptide / all reads for the bait, averaged over ….

Consider chain 1 P6L, for which the screen value is 0.0027 average fractional NGS count over selection days 2 and 3 (reads of this peptide / all reads for the bait, averaged over ….

With chain 1 P6R, the screen value was 0.00176 average fractional NGS count over selection days 2 and 3 (reads of this peptide / all reads for the bait, averaged over ….

For chain 1 P6Y, the screen value was 0.000656 average fractional NGS count over selection days 2 and 3 (reads of this peptide / all reads for the bait, averaged over ….

chain 1 Q4A: the screen value is 0.00278 average fractional NGS count over selection days 2 and 3 (reads of this peptide / all reads for the bait, averaged over ….

With chain 1 Q4I, the screen value was 0.017 average fractional NGS count over selection days 2 and 3 (reads of this peptide / all reads for the bait, averaged over ….

For chain 1 Q4P, the screen value was 0.00127 average fractional NGS count over selection days 2 and 3 (reads of this peptide / all reads for the bait, averaged over ….

With chain 1 Q4H, the screen value is 0.025 average fractional NGS count over selection days 2 and 3 (reads of this peptide / all reads for the bait, averaged over ….

On to chain 1 Q4L, for which the screen value was 0.0014 average fractional NGS count over selection days 2 and 3 (reads of this peptide / all reads for the bait, averaged over ….

Regarding chain 1 Q4N, the screen value was 0.00188 average fractional NGS count over selection days 2 and 3 (reads of this peptide / all reads for the bait, averaged over ….
